Experimental data taken from the supplement of paper PMC11876631.
Positions count from the first letter of the chain named. In names and notes the source's numbering stands. ± gives the standard deviation of the averaged measurements. Laboratory Escherichia coli strains with one amino-acid change in an essential protein, pooled on minimal glucose agar with carbenicillin or gentamicin at twice the control MIC (plus kanamycin and chloramphenicol for the plasmids), 48 h. Fold change of barcode share against drug-free plates; higher = less susceptible. Active = above 20 in both replicates (the paper's putatively resistant). '<' = one read or none on drug, '>' = one read or none on a drug-free plate. Shares are relative, so most strains fall below 1 when a few take over. Listed are strains with at least 15 reads on both drug-free plates, and hits; most hits rest on fewer reference reads. Replicate rank correlation about 0.5. Edits are read from barcodes.

B1: tyrS V108A (protein)
chain: MASSNLIKQLQERGLVAQVTDEEALAERLAQGPIALYCGFDPTADSLHLGHLVPLLCLKRFQQAGHKPVALVGGATGLIGDPSFKAAERKLNTEETVQEWVDKIRKQAAPFLDFDCGENSAIAANNYDWFGNMNVLTFLRDIGKHFSVNQMINKEAVKQRLNREDQGISFTEFSYNLLQGYDFACLNKQYGVVLQIGGSDQWGNITSGIDLTRRLHQNQVFGLTVPLITKADGTKFGKTEGGAVWLDPKKTSPYKFYQFWINTADADVYRFLKFFTFMSIEEINALEEEDKNSGKAPRAQYVLAEQVTRLVHGEEGLQAAKRITECLFSGSLSALSEADFEQLAQDGVPMVEMEKGADLMQALVDSELQPSRGQARKTIASNAITINGEKQSDPEYFFKEEDRLFGRFTLLRRGKKNYCLICWK
B2: tyrS V108W (protein)
chain: B1 chain with A108W
B3: tyrS V108Q (protein)
chain: B1 chain with A108Q
B4: tyrS V108P (protein)
chain: B1 chain with A108P
B5: carA L206W (protein)
chain: MIKSALLVLEDGTQFHGRAIGATGSAVGEVVFNTSMTGYQEILTDPSYSRQIVTLTYPHIGNVGTNDADEESSQVHAQGLVIRDLPLIASNFRNTEDLSSYLKRHNIVAIADIDTRKLTRLLREKGAQNGCIIAGDNPDAALALEKARAFPGLNGMDLAKEVTTAEAYSWTQGSWTLTGGLPEAKKEDELPFHVVAYDFGAKRNIWRMLVDRGCRLTIVPAQTSAEDVLKMNPDGIFLSNGPGDPAPCDYAITAIQKFLETDIPVFGICLGHQLLALASGAKTVKMKFGHHGGNHPVKDVEKNVVMITAQNHGFAVDEATLPANLRVTHKSLFDGTLQGIHRTDKPAFSFQGHPEASPGPHDAAPLFDHFIELIEQYRKTAK
B6: tyrS W260Q (protein)
chain: B1 chain with A108V, W260Q
B7: tyrS V72A (protein)
chain: B1 chain with V72A, A108V
B8: carA L206Q (protein)
chain: B5 chain with W206Q
B9: tyrS V72W (protein)
chain: B1 chain with V72W, A108V
B10: tyrS V72Q (protein)
chain: B1 chain with V72Q, A108V
B11: tyrS V72D (protein)
chain: B1 chain with V72D, A108V
B12: carA L206D (protein)
chain: B5 chain with W206D

biological target: Escherichia coli (laboratory strain); experiment: barcode share on antibiotic plates over drug-free plates; higher = less susceptible; settings: antibiotic: carbenicillin; 2× MIC (3.1 µg/mL)
Protocol: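 A pool of E. coli strains, each edited to carry one amino-acid change in an essential protein, was grown for 48 h on minimal glucose agar with or without antibiotic; strain barcodes were sequenced; mean of two replicates.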

Protein	fold change of barcode share
B1	0.47 ± 0.1
B2	0.261 ± 0.018
B3	0.209 ± 0.059
B4	0.167 ± 0.025
B5	0.715 ± 0.36
B6	0.345 ± 0.27
B7	0.487 ± 0.047
B8	0.468 ± 0.3
B9	0.372 ± 0.085
B10	0.348 ± 0.14
B11	0.37 ± 0.087
B12	0.458 ± 0.069

same assay, conditions: antibiotic: gentamicin; 2× MIC (MIC 0.45 µg/mL)

Protein	fold change of barcode share
B1	< 0.0125
B2	0.0127 ± 0.0066
B3	0.0365 ± 0.031
B4	0.0186 ± 0.0029
B5	0.0203 ± 0.0073
B6	< 0.00873
B7	< 0.00349
B8	< 0.0119
B9	0.00949 ± 0.01
B10	0.00489 ± 0.0026
B11	0.0121 ± 0.0034
B12	0.0187 ± 0.014
